# From paper PMC4336329 (PLoS ONE, 2015)
# The whole screen tested about 310,000 compounds, of which about 14,000 (4.5%) showed an effect of 50% or more. The effect is printed as a negative number. The list shows a part of the results.
# Target: human ether-à-go-go-related gene (hERG) potassium channel (human, UniProt Q12809)
# Test: primary screen, population patch clamp on CHO cells stably expressing hERG
# 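Note: peak tail current of the secondary pulse compared with the same well before compound.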
# Chain of human ether-à-go-go-related gene (hERG) potassium channel (Q12809 whole entry, looked up): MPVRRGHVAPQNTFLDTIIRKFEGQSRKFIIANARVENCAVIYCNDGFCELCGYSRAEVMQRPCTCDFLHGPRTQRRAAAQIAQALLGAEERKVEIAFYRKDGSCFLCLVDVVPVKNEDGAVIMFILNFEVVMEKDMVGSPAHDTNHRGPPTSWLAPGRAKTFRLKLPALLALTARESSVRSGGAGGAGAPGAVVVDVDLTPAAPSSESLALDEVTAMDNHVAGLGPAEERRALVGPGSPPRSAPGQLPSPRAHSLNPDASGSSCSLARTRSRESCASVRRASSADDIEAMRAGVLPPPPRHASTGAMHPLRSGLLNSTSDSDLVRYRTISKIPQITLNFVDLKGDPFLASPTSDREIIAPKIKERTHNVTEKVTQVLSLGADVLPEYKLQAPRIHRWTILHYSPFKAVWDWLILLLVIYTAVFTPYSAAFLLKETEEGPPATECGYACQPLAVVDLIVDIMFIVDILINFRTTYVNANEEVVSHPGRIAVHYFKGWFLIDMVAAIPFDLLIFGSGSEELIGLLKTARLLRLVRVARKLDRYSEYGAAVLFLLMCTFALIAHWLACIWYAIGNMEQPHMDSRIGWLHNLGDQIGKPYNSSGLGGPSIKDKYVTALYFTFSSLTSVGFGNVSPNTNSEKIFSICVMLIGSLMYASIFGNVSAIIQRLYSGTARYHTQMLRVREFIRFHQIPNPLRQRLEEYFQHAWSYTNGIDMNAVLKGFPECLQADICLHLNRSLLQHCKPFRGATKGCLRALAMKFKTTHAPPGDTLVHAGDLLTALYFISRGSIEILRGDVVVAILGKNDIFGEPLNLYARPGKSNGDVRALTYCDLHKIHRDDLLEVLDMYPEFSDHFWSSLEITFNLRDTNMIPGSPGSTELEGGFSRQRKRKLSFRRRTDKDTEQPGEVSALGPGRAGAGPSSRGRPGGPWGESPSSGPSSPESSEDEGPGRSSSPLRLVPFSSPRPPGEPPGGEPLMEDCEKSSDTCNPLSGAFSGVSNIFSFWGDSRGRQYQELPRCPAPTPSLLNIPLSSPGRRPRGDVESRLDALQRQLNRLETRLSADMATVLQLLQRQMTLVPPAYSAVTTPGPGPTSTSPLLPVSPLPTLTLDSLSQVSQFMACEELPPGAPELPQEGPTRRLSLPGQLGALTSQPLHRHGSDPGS
row,SMILES,"hERG current change (%, negative = inhibition) at 10uM [%]"
1,Cc1cc(C(=O)Nc2ccc(C)c(C)c2)n(-c2ccccc2)n1,-5.82
2,Nc1ncnc(NC2CCS(=O)(=O)C2)c1[N+](=O)[O-] (centres unmarked),8.13
3,Cc1coc2c(C)c3oc(=O)c4c(c3cc12)CCCC4,9.91
4,CN1CCCN(Cc2ccc(Cl)cc2Cl)CC1,-39
5,Cc1ccccc1NC(=O)NNC(=O)c1ccc2ccccc2c1,11.7
6,COC(=O)c1ccc(Sc2ccccc2NS(=O)(=O)c2ccc(OC)cc2)nc1,9.67
7,COc1ccc(-c2cnc3nc(/N=C/N(C)C)nn3c2/N=C/N(C)C)cc1,9.65
8,O=C(O)c1ccc(N2C(=O)CC(SC(=NCc3ccc4c(c3)OCO4)Nc3ccc(F)cc3)C2=O)cc1 (centres unmarked),25.7
9,COc1ccc2nc(COC(=O)c3cccs3)c(C(C)=O)[n+]([O-])c2c1,13.2
10,COc1cccc(S(=O)(=O)NCc2ccc(C(=O)Nc3ccc(Cl)cc3)cc2)c1,-3.12
11,Cc1c(OCC(=O)NCc2cccnc2)ccc2c3c(c(=O)oc12)CCCC3,5.81
12,CC(=O)c1ccc(N2CCN(CC(O)c3ccccc3)CC2)cc1 (centres unmarked),-11.6
13,Cc1ccc(OCC(=O)Nc2ccc(C(=O)O)cc2NC(=O)COc2ccc(C)c(C)c2)cc1C,6.5
14,Cc1ccc(NC(=O)CN(C)C(=O)C(Sc2ccccc2)c2ccccc2)cc1 (centres unmarked),2.05
15,O=C(COC(=O)CCc1nc2ccccc2n1-c1ccccc1)Nc1ccc(N2CCCCC2)cc1,2.85
16,COC(=O)c1ccc(CNC(=O)COC(=O)C23CC4CC(CC(C4)C2)C3)cc1,0.0278
17,Nc1nc(NCCO)nc(NCC2CCCO2)c1[N+](=O)[O-] (centres unmarked),9.69
18,CCc1nnc(NC(=O)CN2CCN(Cc3cccc(OC)c3)CC2)s1,-19
19,O=C(NC(=S)Nc1ccc(C(=O)N2CCOCC2)cc1)c1ccc([N+](=O)[O-])cc1,17.4

row,SMILES,"hERG current change (%, negative = inhibition) at 10uM [%]"
1,CCN(CC)c1ccc(C(=O)OCC(=O)Nc2cc3oc4ccccc4c3cc2OC)cc1,11.1
2,O=C(COC(=O)CCc1ccc(S(=O)(=O)N2CCOCC2)cc1)NC1CCCCCC1,-10.8
3,CC#CC(=O)N1CCCC(Cc2cccc(OC)c2)(C(=O)OCC)C1 (centres unmarked),16.6
4,CCC(C)NC(=O)Cn1cccc1C(=O)c1ccccc1 (centres unmarked),-2.44
5,COc1cccc(C2c3c(oc4ccc(Cl)cc4c3=O)C(=O)N2c2cc(C)on2)c1OC (centres unmarked),5.9
6,Cc1csc(NC(=O)c2ccc(Cn3nc(C)c(Br)c3C)o2)n1,-27.3
7,CN1CCN(CCCC(=O)c2ccc(F)cc2)CC1.Cl,-14.5
8,CN(C)CCn1c(=O)n(-c2ccc(F)cc2)c(=O)c2c3c(sc21)CCCCC3,-18.6
9,Nc1nc(CN2CCN(Cc3ccccc3)CC2)nc(Nc2ccc3c(c2)OCCO3)n1,-74.8
10,Cc1nn(Cc2ccc([N+](=O)[O-])cc2)c(=O)n1-c1cccc(F)c1,1.7
11,CCn1ccnc1CNC(=O)CC1C(=O)NCCN1Cc1ccc(OC)cc1OC (centres unmarked),-18
12,CCOc1ccc2oc(C(=O)OCC(=O)NC3CCCCC3)c(C)c2c1,-14.5
13,O=C(NCCN1CCN(c2ccccc2)CC1)c1cccn2c(=O)c3ccccc3nc12,-63
14,NC(=O)c1ccccc1NC(=O)c1ccccc1F,10.3
15,O=C(Nc1nc2ccccc2[nH]1)c1cccc([N+](=O)[O-])c1,6.51
16,CCOCCCNC(=O)Cc1c(C(=O)O)[nH]c2ccc(Cl)cc12,1.32
17,CCNc1oc(-c2cccc3ccccc23)nc1C#N,15.7
18,COc1ccc(-c2cc(C(F)F)n3ncc(C(=O)Nc4cccc(S(=O)(=O)N5CCOCC5)c4)c3n2)cc1,12.1
19,COc1cc2c(cc1OC)C(=S)NC(C)(C)C2,17.2

row,SMILES,"hERG current change (%, negative = inhibition) at 10uM [%]"
1,COc1ccc(C(=O)NC2CC2)cc1OC1CCN(C/C=C/c2ccccc2)CC1,-79.9
2,CCOC(=O)C(C)CC(C)C(=O)N1CCOCCOCCN(C(=O)C(C)CC(C)C(=O)OCC)CCOCC1 (centres unmarked),10.6
3,CC(=O)Nc1ccc(C(=O)OCC(=O)N2CCN(C(=O)c3ccco3)CC2)cc1,2.69
4,COCCn1c(SCC(=O)N2CCOCC2)nnc1-c1ccncc1,-7.01
5,COc1ccccc1NC(=O)CSc1nnc(-c2ccncc2)n1CC1CCCO1 (centres unmarked),-8.46
6,Cc1ccc(S(=O)(=O)N2CCN(C(=O)CCn3cncn3)CC2)cc1,-2.43
7,C/C(=C\C(=O)C(F)(F)F)Nc1ccc(C)cc1,7
8,O=C(Cn1cnc([N+](=O)[O-])n1)NC1CC1,7.02
9,CNc1nnc(-c2cc3cc(Cl)ccc3oc2=O)s1,-6.28
10,c1ccc(-c2cn3c(n2)CCc2ccc4cccnc4c2-3)cc1,-3.14
11,O=C(CSc1nnc(-c2c[nH]c3ccccc23)o1)NCC1CCCO1 (centres unmarked),11.7
12,COC(=O)c1c(NC(=O)c2ccco2)sc2c1CCC2,19.3
13,CCCNC(=O)CSc1nc(Cc2ccccc2)nc2ccccc12,-7.11
14,COC(=O)c1cc(NC(=O)c2c(F)c(F)c(F)c(F)c2F)cc(C(=O)OC)c1,-3.29
15,CCOc1ccc(N(CC(=O)NCCSc2ccccn2)S(=O)(=O)c2ccc(Cl)cc2)cc1,6.45
16,CN(C)CCN(C(=O)c1cccc(Cl)c1)c1nc2c(Cl)cccc2s1.Cl,-52.6
17,Cn1cccc1C(=O)NC1CCCCC1,-10.8
18,COc1ccccc1C(C(=O)NC1CCCC1)N(C(=O)c1csnn1)C1CC1 (centres unmarked),15.2
